Here are results for 18 compounds from US11178870B2 (priority 2017, dated 2021).

What all share (format): in vivo
For experiment [1], the system named is Botrytis cinerea. The experiment can be described thus: Test Example B: Gray mold on tomato. Conditions: Table 7, Test B.
Experiment [2] relates to Alternaia brassicicola. The experiment is described as follows: Test Example C: Alternaria sooty spot on cabbage. To be noted: Table 7, Test C.
The test system of experiment [3] is Blumeria graminis f. sp. hordei. The experiment is described as follows: Test Example D: Powdery mildew on barley. Conditions: Table 7, Test D.
Experiment [4] concerns Puccinia recondita. The experiment can be described thus: Test Example E: Brown rust on wheat. Conditions: Table 7, Test E.
For experiment [5], the system named is Plasmopara viticola. The experiment can be described thus: Test Example G: Downy mildew on vine. Conditions: 250 ppm sprayed (2.5 ml/pot) before inoculation; assessed 7 to 10 days after inoculation.

Each structure is given as a SMILES string.

As to `CCn1c(-c2ccc(OC)cc2F)c(-n2cc(F)cn2)ccc1=O` [Compound 300], the “control value, Test B (gray mold on tomato)” value (“control value, Test B” for short) in experiment [1] was “H (H shows the control value more than 50%)”. For the same compound, in experiment [2], the “control value, Test C (Alternaria sooty spot on cabbage)” value (“control value, Test C” for short) was “H (H shows the control value more than 50%)”. The “control value, Test D (powdery mildew on barley)” value (“control value, Test D” below) in experiment [3] is on record as “H (H shows the control value more than 50%)”. In addition, the “control value, Test E (brown rust on wheat)” value (shortened to “control value, Test E”) in experiment [4] is “H (H shows the control value more than 50%)”. Besides, in experiment [5], the “control value, Test G (downy mildew on vine)” value (from here on “control value, Test G”) is given as “L (L shows the control value of 50% or less)”.

In the case of `CCn1c(-c2ccc(OC)cc2F)c(-n2cc(F)cn2)cc(Cl)c1=O` [Compound 301], the “control value, Test B” value in experiment [1] was “H (H shows the control value more than 50%)”. The “control value, Test C” value in experiment [2] is given as “H (H shows the control value more than 50%)”. Further, the “control value, Test D” value in experiment [3] is on record as “H (H shows the control value more than 50%)”. Besides, the “control value, Test E” value in experiment [4] is recorded as “H (H shows the control value more than 50%)”. Besides, in experiment [5], the “control value, Test G” value is on record as “L (L shows the control value of 50% or less)”.

On to `CCn1c(-c2ccc(OC)cc2F)c(-n2cc(F)cn2)cc(Br)c1=O` [Compound 302], for which the “control value, Test B” value in experiment [1] was “H (H shows the control value more than 50%)”. The “control value, Test C” value in experiment [2] was “H (H shows the control value more than 50%)”. For the same compound, in experiment [3], the “control value, Test D” value was “H (H shows the control value more than 50%)”. In addition, the “control value, Test E” value in experiment [4] is given as “H (H shows the control value more than 50%)”. Moreover, in experiment [5], the “control value, Test G” value is listed as “H (H shows the control value more than 50%)”.

`Cc1cnn(-c2ccc(=O)n(CC(F)F)c2-c2ccccc2F)c1` [Compound 305]: in experiment [1], the “control value, Test B” value was “L (L shows the control value of 50% or less)”. Further, in experiment [2], the “control value, Test C” value is “H (H shows the control value more than 50%)”. The “control value, Test D” value in experiment [3] is “H (H shows the control value more than 50%)”. Also, in experiment [4], the “control value, Test E” value is listed as “H (H shows the control value more than 50%)”. In addition, in experiment [5], the “control value, Test G” value was “L (L shows the control value of 50% or less)”.

Take `Cc1ccccc1-c1c(-n2ncc(C)c2Cl)cc(Cl)c(=O)n1CC(F)F` [Compound 306]: in experiment [1], the “control value, Test B” value is on record as “H (H shows the control value more than 50%)”. Besides, the “control value, Test C” value in experiment [2] is recorded as “H (H shows the control value more than 50%)”. Further, the “control value, Test D” value in experiment [3] is listed as “H (H shows the control value more than 50%)”. Besides, the “control value, Test E” value in experiment [4] is on record as “H (H shows the control value more than 50%)”. Moreover, the “control value, Test G” value in experiment [5] is listed as “L (L shows the control value of 50% or less)”.

Take `Cc1ccccc1-c1c(-n2ncc(C)c2Cl)cc(Br)c(=O)n1CC(F)F` [Compound 307]: the “control value, Test B” value in experiment [1] is listed as “H (H shows the control value more than 50%)”. Besides, the “control value, Test C” value in experiment [2] is given as “H (H shows the control value more than 50%)”. The “control value, Test D” value in experiment [3] is listed as “H (H shows the control value more than 50%)”. In addition, the “control value, Test E” value in experiment [4] is recorded as “H (H shows the control value more than 50%)”. In addition, the “control value, Test G” value in experiment [5] is on record as “L (L shows the control value of 50% or less)”.

`CCn1c(-c2c(F)cc(OC)cc2F)c(-n2cc(F)cn2)ccc1=O` [Compound 308]: in experiment [1], the “control value, Test B” value is on record as “H (H shows the control value more than 50%)”. The “control value, Test C” value in experiment [2] is listed as “H (H shows the control value more than 50%)”. Also, the “control value, Test D” value in experiment [3] was “H (H shows the control value more than 50%)”. For the same compound, the “control value, Test E” value in experiment [4] was “H (H shows the control value more than 50%)”. For the same compound, the “control value, Test G” value in experiment [5] is given as “L (L shows the control value of 50% or less)”.

Consider `Cc1cnn(-c2cc(Br)c(=O)n(CC(F)F)c2-c2ccccc2F)c1` [Compound 309], for which the “control value, Test B” value in experiment [1] is listed as “H (H shows the control value more than 50%)”. Further, the “control value, Test C” value in experiment [2] is “H (H shows the control value more than 50%)”. Moreover, in experiment [3], the “control value, Test D” value was “H (H shows the control value more than 50%)”. The “control value, Test E” value in experiment [4] is “H (H shows the control value more than 50%)”. The “control value, Test G” value in experiment [5] was “L (L shows the control value of 50% or less)”.

As to `Cc1cnn(-c2cc(Cl)c(=O)n(CC(F)F)c2-c2ccccc2F)c1Cl` [Compound 310], in experiment [1], the “control value, Test B” value was “H (H shows the control value more than 50%)”. The “control value, Test C” value in experiment [2] is “H (H shows the control value more than 50%)”. Further, the “control value, Test D” value in experiment [3] is on record as “H (H shows the control value more than 50%)”. In experiment [4], the “control value, Test E” value is recorded as “H (H shows the control value more than 50%)”. For the same compound, the “control value, Test G” value in experiment [5] is “L (L shows the control value of 50% or less)”.

Take `CCOc1cc(F)c(-c2c(-n3cc(F)cn3)ccc(=O)n2CC)c(F)c1` [Compound 311]: the “control value, Test B” value in experiment [1] is listed as “H (H shows the control value more than 50%)”. Further, in experiment [2], the “control value, Test C” value is “H (H shows the control value more than 50%)”. Besides, the “control value, Test D” value in experiment [3] is on record as “H (H shows the control value more than 50%)”. Moreover, in experiment [4], the “control value, Test E” value is on record as “H (H shows the control value more than 50%)”. In addition, in experiment [5], the “control value, Test G” value is recorded as “L (L shows the control value of 50% or less)”.

Consider `Cc1cnn(-c2cc(Br)c(=O)n(CC(F)F)c2-c2ccccc2F)c1Cl` [Compound 312], for which the “control value, Test B” value in experiment [1] is “H (H shows the control value more than 50%)”. For the same compound, in experiment [2], the “control value, Test C” value is “H (H shows the control value more than 50%)”. In experiment [3], the “control value, Test D” value was “H (H shows the control value more than 50%)”. Besides, the “control value, Test E” value in experiment [4] is recorded as “H (H shows the control value more than 50%)”. In experiment [5], the “control value, Test G” value is “L (L shows the control value of 50% or less)”.

`CCn1c(-c2c(F)cc(OC)cc2F)c(-n2cc(F)cn2)cc(Cl)c1=O` [Compound 314]: the “control value, Test B” value in experiment [1] is reported as “H (H shows the control value more than 50%)”. Also, in experiment [2], the “control value, Test C” value is reported as “H (H shows the control value more than 50%)”. Also, the “control value, Test D” value in experiment [3] is “H (H shows the control value more than 50%)”. The “control value, Test E” value in experiment [4] is “H (H shows the control value more than 50%)”. Further, the “control value, Test G” value in experiment [5] was “L (L shows the control value of 50% or less)”.

For `CCn1c(-c2c(F)cc(OC)cc2F)c(-n2cc(F)cn2)cc(Br)c1=O` [Compound 315], the “control value, Test B” value in experiment [1] is “H (H shows the control value more than 50%)”. Further, the “control value, Test C” value in experiment [2] is on record as “H (H shows the control value more than 50%)”. For the same compound, the “control value, Test D” value in experiment [3] is recorded as “H (H shows the control value more than 50%)”. The “control value, Test E” value in experiment [4] is given as “H (H shows the control value more than 50%)”. Also, the “control value, Test G” value in experiment [5] was “L (L shows the control value of 50% or less)”.

Turning to `CCOc1cc(F)c(-c2c(-n3cc(F)cn3)cc(Cl)c(=O)n2CC)c(F)c1` [Compound 316], the “control value, Test B” value in experiment [1] is reported as “H (H shows the control value more than 50%)”. The “control value, Test C” value in experiment [2] is given as “H (H shows the control value more than 50%)”. Also, the “control value, Test D” value in experiment [3] was “H (H shows the control value more than 50%)”. The “control value, Test E” value in experiment [4] is “H (H shows the control value more than 50%)”. Moreover, the “control value, Test G” value in experiment [5] is “L (L shows the control value of 50% or less)”.

On to `CCOc1cc(F)c(-c2c(-n3cc(F)cn3)cc(Br)c(=O)n2CC)c(F)c1` [Compound 317], for which, in experiment [1], the “control value, Test B” value is “H (H shows the control value more than 50%)”. Further, the “control value, Test C” value in experiment [2] is recorded as “H (H shows the control value more than 50%)”. Also, in experiment [3], the “control value, Test D” value was “L (L shows the control value of 50% or less)”. The “control value, Test E” value in experiment [4] is “H (H shows the control value more than 50%)”. In addition, in experiment [5], the “control value, Test G” value was “L (L shows the control value of 50% or less)”.

Consider `CCn1c(-c2c(F)cccc2F)c(-n2cc(F)cn2)ccc1=O` [Compound 318], for which, in experiment [1], the “control value, Test B” value was “H (H shows the control value more than 50%)”. The “control value, Test C” value in experiment [2] is “H (H shows the control value more than 50%)”. Besides, in experiment [3], the “control value, Test D” value is “H (H shows the control value more than 50%)”. The “control value, Test E” value in experiment [4] is on record as “H (H shows the control value more than 50%)”. Further, the “control value, Test G” value in experiment [5] is given as “L (L shows the control value of 50% or less)”.

As for `CCn1c(-c2c(F)cccc2F)c(-n2cc(F)cn2)cc(Cl)c1=O` [Compound 319], the “control value, Test B” value in experiment [1] is listed as “H (H shows the control value more than 50%)”. Further, in experiment [2], the “control value, Test C” value was “H (H shows the control value more than 50%)”. In experiment [3], the “control value, Test D” value is “H (H shows the control value more than 50%)”. Further, in experiment [4], the “control value, Test E” value was “H (H shows the control value more than 50%)”. In experiment [5], the “control value, Test G” value was “L (L shows the control value of 50% or less)”.

Consider `CCn1c(-c2c(F)cccc2F)c(-n2cc(F)cn2)cc(Br)c1=O` [Compound 320], for which the “control value, Test B” value in experiment [1] is recorded as “H (H shows the control value more than 50%)”. Moreover, the “control value, Test C” value in experiment [2] is recorded as “H (H shows the control value more than 50%)”. Besides, the “control value, Test D” value in experiment [3] was “H (H shows the control value more than 50%)”. Besides, the “control value, Test E” value in experiment [4] was “H (H shows the control value more than 50%)”. In experiment [5], the “control value, Test G” value was “L (L shows the control value of 50% or less)”.
